# These are yes or no findings as the source states them, for the method shown. In cells and extracts the contact can be indirect. Some results given as binding are weak or reduced against the parent protein; the word gives no strength. Sequences can lack the tags named with a protein.
# T1: Shank3a PDZ domain (pEGFP-C1-Shank3a PDZ), aa 556-663 (mouse) (UniProt Q4ACU6)
# T1 sequence: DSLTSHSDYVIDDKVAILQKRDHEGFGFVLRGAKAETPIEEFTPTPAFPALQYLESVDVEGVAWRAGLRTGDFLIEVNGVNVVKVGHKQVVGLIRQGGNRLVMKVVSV
# B1: HA-tagged human Slitrk2 wild type (pDisplay-HA-hSlitrk2) (protein, UniProt Q9H156 22-845)
# chain: RKTAKDICKIRCLCEEKENVLNINCENKGFTTVSLLQPPQYRIYQLFLNGNLLTRLYPNEFVNYSNAVTLHLGNNGLQEIRTGAFSGLKTLKRLHLNNNKLEILREDTFLGLESLEYLQADYNYISAIEAGAFSKLNKLKVLILNDNLLLSLPSNVFRFVLLTHLDLRGNRLKVMPFAGVLEHIGGIMEIQLEENPWNCTCDLLPLKAWLDTITVFVGEIVCETPFRLHGKDVTQLTRQDLCPRKSASDSSQRGSHADTHVQRLSPTMNPALNPTRAPKASRPPKMRNRPTPRVTVSKDRQSFGPIMVYQTKSPVPLTCPSSCVCTSQSSDNGLNVNCQERKFTNISDLQPKPTSPKKLYLTGNYLQTVYKNDLLEYSSLDLLHLGNNRIAVIQEGAFTNLTSLRRLYLNGNYLEVLYPSMFDGLQSLQYLYLEYNVIKEIKPLTFDALINLQLLFLNNNLLRSLPDNIFGGTALTRLNLRNNHFSHLPVKGVLDQLPAFIQIDLQENPWDCTCDIMGLKDWTEHANSPVIINEVTCESPAKHAGEILKFLGREAICPDSPNLSDGTVLSMNHNTDTPRSLSVSPSSYPELHTEVPLSVLILGLLVVFILSVCFGAGLFVFVLKRRKGVPSVPRNTNNLDVSSFQLQYGSYNTETHDKTDGHVYNYIPPPVGQMCQNPIYMQKEGDPVAYYRNLQEFSYSNLEEKKEEPATPAYTISATELLEKQATPREPELLYQNIAERVKELPSAGLVHYNFCTLPKRQFAPSYESRRQNQDRINKTVLYGTPRKCFVGQSKPNHPLLQAKPQSEPDYLEVLEKQTAISQL
# B2: HA-tagged human Slitrk2 ΔPBM (pDisplay-HA-hSlitrk2 ΔPBM) (domain or fragment, UniProt Q9H156 22-841)
# chain: RKTAKDICKIRCLCEEKENVLNINCENKGFTTVSLLQPPQYRIYQLFLNGNLLTRLYPNEFVNYSNAVTLHLGNNGLQEIRTGAFSGLKTLKRLHLNNNKLEILREDTFLGLESLEYLQADYNYISAIEAGAFSKLNKLKVLILNDNLLLSLPSNVFRFVLLTHLDLRGNRLKVMPFAGVLEHIGGIMEIQLEENPWNCTCDLLPLKAWLDTITVFVGEIVCETPFRLHGKDVTQLTRQDLCPRKSASDSSQRGSHADTHVQRLSPTMNPALNPTRAPKASRPPKMRNRPTPRVTVSKDRQSFGPIMVYQTKSPVPLTCPSSCVCTSQSSDNGLNVNCQERKFTNISDLQPKPTSPKKLYLTGNYLQTVYKNDLLEYSSLDLLHLGNNRIAVIQEGAFTNLTSLRRLYLNGNYLEVLYPSMFDGLQSLQYLYLEYNVIKEIKPLTFDALINLQLLFLNNNLLRSLPDNIFGGTALTRLNLRNNHFSHLPVKGVLDQLPAFIQIDLQENPWDCTCDIMGLKDWTEHANSPVIINEVTCESPAKHAGEILKFLGREAICPDSPNLSDGTVLSMNHNTDTPRSLSVSPSSYPELHTEVPLSVLILGLLVVFILSVCFGAGLFVFVLKRRKGVPSVPRNTNNLDVSSFQLQYGSYNTETHDKTDGHVYNYIPPPVGQMCQNPIYMQKEGDPVAYYRNLQEFSYSNLEEKKEEPATPAYTISATELLEKQATPREPELLYQNIAERVKELPSAGLVHYNFCTLPKRQFAPSYESRRQNQDRINKTVLYGTPRKCFVGQSKPNHPLLQAKPQSEPDYLEVLEKQTA
# B3: HA-tagged human Slitrk1 (pDisplay-HA-hSlitrk1) (protein, UniProt Q96PX8 18-696)
# chain: NVTGDVCKEKICSCNEIEGDLHVDCEKKGFTSLQRFTAPTSQFYHLFLHGNSLTRLFPNEFANFYNAVSLHMENNGLHEIVPGAFLGLQLVKRLHINNNKIKSFRKQTFLGLDDLEYLQADFNLLRDIDPGAFQDLNKLEVLILNDNLISTLPANVFQYVPITHLDLRGNRLKTLPYEEVLEQIPGIAEILLEDNPWDCTCDLLSLKEWLENIPKNALIGRVVCEAPTRLQGKDLNETTEQDLCPLKNRVDSSLPAPPAQEETFAPGPLPTPFKTNGQEDHATPGSAPNGGTKIPGNWQIKIRPTAAIATGSSRNKPLANSLPCPGGCSCDHIPGSGLKMNCNNRNVSSLADLKPKLSNVQELFLRDNKIHSIRKSHFVDYKNLILLDLGNNNIATVENNTFKNLLDLRWLYMDSNYLDTLSREKFAGLQNLEYLNVEYNAIQLILPGTFNAMPKLRILILNNNLLRSLPVDVFAGVSLSKLSLHNNYFMYLPVAGVLDQLTSIIQIDLHGNPWECSCTIVPFKQWAERLGSEVLMSDLKCETPVNFFRKDFMLLSNDEICPQLYARISPTLTSHSKNSTGLAETGTHSNSYLDTSRVSISVLVPGLLLVFVTSAFTVVGMLVFILRNRKRSKRRDANSSASEINSLQTVCDSSYWHNGPYNADGAHRVYDCGSHSLSD
# B4: HA-tagged human Slitrk3 (pDisplay-HA-hSlitrk3) (protein, UniProt O94933 27-977)
# chain: WTTPIPLIEDSEEIDEPCFDPCYCEVKESLFHIHCDSKGFTNISQITEFWSRPFKLYLQRNSMRKLYTNSFLHLNNAVSINLGNNALQDIQTGAFNGLKILKRLYLHENKLDVFRNDTFLGLESLEYLQADYNVIKRIESGAFRNLSKLRVLILNDNLIPMLPTNLFKAVSLTHLDLRGNRLKVLFYRGMLDHIGRSLMELQLEENPWNCTCEIVQLKSWLERIPYTALVGDITCETPFHFHGKDLREIRKTELCPLLSDSEVEASLGIPHSSSSKENAWPTKPSSMLSSVHFTASSVEYKSSNKQPKPTKQPRTPRPPSTSQALYPGPNQPPIAPYQTRPPIPIICPTGCTCNLHINDLGLTVNCKERGFNNISELLPRPLNAKKLYLSSNLIQKIYRSDFWNFSSLDLLHLGNNRISYVQDGAFINLPNLKSLFLNGNDIEKLTPGMFRGLQSLHYLYFEFNVIREIQPAAFSLMPNLKLLFLNNNLLRTLPTDAFAGTSLARLNLRKNYFLYLPVAGVLEHLNAIVQIDLNENPWDCTCDLVPFKQWIETISSVSVVGDVLCRSPENLTHRDVRTIELEVLCPEMLHVAPAGESPAQPGDSHLIGAPTSASPYEFSPPGGPVPLSVLILSLLVLFFSAVFVAAGLFAYVLRRRRKKLPFRSKRQEGVDLTGIQMQCHRLFEDGGGGGGGSGGGGRPTLSSPEKAPPVGHVYEYIPHPVTQMCNNPIYKPREEEEVAVSSAQEAGSAERGGPGTQPPGMGEALLGSEQFAETPKENHSNYRTLLEKEKEWALAVSSSQLNTIVTVNHHHPHHPAVGGVSGVVGGTGGDLAGFRHHEKNGGVVLFPPGGGCGSGSMLLDRERPQPAPCTVGFVDCLYGTVPKLKELHVHPPGMQYPDLQQDARLKETLLFSAGKGFTDHQTQKSDYLELRAKLQTKPDYLEVLEKTTYRF
# B5: HA-tagged human Slitrk4 (pDisplay-HA-hSlitrk4) (protein, UniProt Q8IW52 19-837)
# chain: DSDISVEICNVCSCVSVENVLYVNCEKVSVYRPNQLKPPWSNFYHLNFQNNFLNILYPNTFLNFSHAVSLHLGNNKLQNIEGGAFLGLSALKQLHLNNNELKILRADTFLGIENLEYLQADYNLIKYIERGAFNKLHKLKVLILNDNLISFLPDNIFRFASLTHLDIRGNRIQKLPYIGVLEHIGRVVELQLEDNPWNCSCDLLPLKAWLENMPYNIYIGEAICETPSDLYGRLLKETNKQELCPMGTGSDFDVRILPPSQLENGYTTPNGHTTQTSLHRLVTKPPKTTNPSKISGIVAGKALSNRNLSQIVSYQTRVPPLTPCPAPCFCKTHPSDLGLSVNCQEKNIQSMSELIPKPLNAKKLHVNGNSIKDVDVSDFTDFEGLDLLHLGSNQITVIKGDVFHNLTNLRRLYLNGNQIERLYPEIFSGLHNLQYLYLEYNLIKEISAGTFDSMPNLQLLYLNNNLLKSLPVYIFSGAPLARLNLRNNKFMYLPVSGVLDQLQSLTQIDLEGNPWDCTCDLVALKLWVEKLSDGIVVKELKCETPVQFANIELKSLKNEILCPKLLNKPSAPFTSPAPAITFTTPLGPIRSPPGGPVPLSILILSILVVLILTVFVAFCLLVFVLRRNKKPTVKHEGLGNPDCGSMQLQLRKHDHKTNKKDGLSTEAFIPQTIEQMSKSHTCGLKESETGFMFSDPPGQKVVMRNVADKEKDLLHVDTRKRLSTIDELDELFPSRDSNVFIQNFLESKKEYNSIGVSGFEIRYPEKQPDKKSKKSLIGGNHSKIVVEQRKSEYFELKAKLQSSPDYLQVLEEQTALNKI
# B6: HA-tagged human Slitrk5 (pDisplay-HA-hSlitrk5) (protein, UniProt O94991 41-958)
# chain: IDYYGEICDNACPCEEKDGILTVSCENRGIISLSEISPPRFPIYHLLLSGNLLNRLYPNEFVNYTGASILHLGSNVIQDIETGAFHGLRGLRRLHLNNNKLELLRDDTFLGLENLEYLQVDYNYISVIEPNAFGKLHLLQVLILNDNLLSSLPNNLFRFVPLTHLDLRGNRLKLLPYVGLLQHMDKVVELQLEENPWNCSCELISLKDWLDSISYSALVGDVVCETPFRLHGRDLDEVSKQELCPRRLISDYEMRPQTPLSTTGYLHTTPASVNSVATSSSAVYKPPLKPPKGTRQPNKPRVRPTSRQPSKDLGYSNYGPSIAYQTKSPVPLECPTACSCNLQISDLGLNVNCQERKIESIAELQPKPYNPKKMYLTENYIAVVRRTDFLEATGLDLLHLGNNRISMIQDRAFGDLTNLRRLYLNGNRIERLSPELFYGLQSLQYLFLQYNLIREIQSGTFDPVPNLQLLFLNNNLLQAMPSGVFSGLTLLRLNLRSNHFTSLPVSGVLDQLKSLIQIDLHDNPWDCTCDIVGMKLWVEQLKVGVLVDEVICKAPKKFAETDMRSIKSELLCPDYSDVVVSTPTPSSIQVPARTSAVTPAVRLNSTGAPASLGAGGGASSVPLSVLILSLLLVFIMSVFVAAGLFVLVMKRRKKNQSDHTSTNNSDVSSFNMQYSVYGGGGGTGGHPHAHVHHRGPALPKVKTPAGHVYEYIPHPLGHMCKNPIYRSREGNSVEDYKDLHELKVTYSSNHHLQQQQQPPPPPQQPQQQPPPQLQLQPGEEERRESHHLRSPAYSVSTIEPREDLLSPVQDADRFYRGILEPDKHCSTTPAGNSLPEYPKFPCSPAAYTFSPNYDLRRPHQYLHPGAGDSRLREPVLYSPPSAVFVEPNRNEYLELKAKLNVEPDYLEVLEKQTTFSQF
# Target: EGFP-tagged Shank3a (pEGFP-C1-mShank3a) (mouse) (UniProt Q4ACU6)
# Test: co-IP; HEK293T cells transfected with the indicated plasmids, 48 h; lysis in 20 mM Tris pH 7.4, 1.0% Triton X-100, 0.1% SDS, 150 mM NaCl, 10% glycerol; 1 μg antibody overnight at 4 °C, protein A-Sepharose; immunoblot; input 5%
row,Binder,binding
1,B1,binds
2,B2,no binding
3,B3,no binding
4,B4,no binding
5,B5,no binding
6,B6,no binding

# Target: T1, Shank3a PDZ domain (pEGFP-C1-Shank3a PDZ), aa 556-663 (mouse)
# Test: as above
row,Binder,binding
1,B1,binds
